Assay results as given in PubChem BioAssay AID1240 (Sanford-Burnham Center for Chemical Genomics, 2008).
The campaign covered roughly 50,000 compounds. About 800 (1.6%) showed an effect of 50% or more. The list shows a part of the results.

Molecular target: Bcl-2-like protein 10 (Homo sapiens) (UniProt Q9HD36)
Test: Phenotype converters, Bcl-B/TR3 peptide binding displacement, primary biochemical FP (AID 1240);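 further: 0% = Bcl-B with tracer peptide and DMSO and 100% = tracer peptide lacking Bcl-B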
Details: GST-Bcl-B / FITC-TR3 peptide fluorescence polarization; stronger effect = higher value; compound at 3.75 mg/L

Sequence of UniProt Q9HD36 (Q9HD36 whole entry, looked up): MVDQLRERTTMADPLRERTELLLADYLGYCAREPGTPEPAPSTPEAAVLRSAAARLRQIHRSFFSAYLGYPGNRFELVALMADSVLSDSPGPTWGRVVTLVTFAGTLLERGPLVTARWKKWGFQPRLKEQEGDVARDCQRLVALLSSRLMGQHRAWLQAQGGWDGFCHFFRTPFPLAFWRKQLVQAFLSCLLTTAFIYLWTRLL

Compound | displacement
CC1(C)CC(=O)c2cc(-c3ccccc3)n(-c3ccccc3)c2C1 | 2.2%
O=c1cc(C(F)(F)C(F)(F)F)c2cc3c4c(c2o1)CCCN4CCC3 | 66.7%
Cc1ccc(-c2csc(NC(=O)c3ccc(C)c(C)c3)n2)cc1 | -5.6%
CCOC(=O)N1CCN(c2cc(N3CCCCC3)c(F)cc2[N+](=O)[O-])CC1 | -5.8%
O=C(N=Nc1c(O)[nH]c(=O)[nH]c1=O)c1cncc(Br)c1 | -7.9%
CCOc1ccc(C(=O)Nc2ccc(-c3cc4ccccc4oc3=O)c(C)c2)cc1Cl | 2.4%
O=CN1N=C(c2ccc3ccccc3c2)CC1c1ccccc1 (stereo unspecified) | 4.2%
C/C(=N\NC(=O)C1(C)CC1(Br)Br)c1ccc(Br)s1 (stereo unspecified) | -1.2%
CC(C)(O)C#Cc1ccc(C(=O)N2CCC(Cc3ccccc3)CC2)cc1 | 6.6%
CC(C)(C)c1csc(NC(=O)c2c(F)c(F)c(F)c(F)c2F)n1 | 2.4%
CCc1ccc(OCC(=O)Nc2nc(-c3ccccc3)cs2)cc1 | 7.6%
COc1ccc(C)cc1NC(=O)C(=O)NN=C1CCN(C)CC1 | 0.8%
CCOc1ccc(NC(=O)CN(c2cccc(OC)c2)S(=O)(=O)c2ccccc2)cc1 | 13.8%
CCOC(=O)C1=C(C)N=c2s/c(=C\c3ccc([N+](=O)[O-])o3)c(=O)n2C1c1ccccc1Cl (stereo unspecified) | 42.7%
COc1ccc(OC)c(NC(=O)COc2c(C)cc(C)cc2C)c1 | 13.1%
O=C1CCCC2=C1C(c1ccco1)Nc1ccccc1N2 (stereo unspecified) | 7.5%
Cn1c(=O)cc(NC2CCCCC2)[nH]c1=O | 10.3%
COc1ccc(OCCCCS)cc1 | 6.3%
N#Cc1c(C(F)(F)F)cc(-c2cccs2)nc1SCC(=O)Nc1ccc(S(N)(=O)=O)cc1 | -11.6%
COc1ccc(-c2cc(-c3ccccc3)n[nH]2)cc1 | -4.3%
Cc1ccc2c(Cl)c(C(=O)NCc3ccncc3)sc2c1 | -6.3%
CCOC(=O)/C(C#N)=N/Nc1ccc(NC(=O)c2ccc(N/N=C(\C#N)C(=O)OCC)cc2)cc1 | 20%
O=C1C2ON(c3ccc(Cl)cc3)C(c3ccc(F)cc3)C2C(=O)N1c1ccccc1 (stereo unspecified) | 2.5%
O=C1c2cccc3c(N4CCCCC4)ccc(c23)C(=O)N1c1ccc(Cl)cn1 | 25.4%

Compound | displacement
O=C(CCCOc1ccc(Cl)cc1Cl)N1CCCc2ccccc21 | -12.7%
CCOc1ccc(N2C(=O)/C(=C/c3ccc4c(c3)OCO4)SC2=S)cc1 | 6.1%
COc1ccc(CCN2C(=O)/C(=C/c3sccc3C)SC2=S)cc1OC | -1.7%
CN(C)c1ccc(NS(=O)(=O)c2ccc(F)cc2)cc1 | 8.7%
O=C(c1ccc(-c2ccc(Cl)cc2)o1)N1CCOCC1 | 21.9%
O=c1[nH]c(=O)n(-c2ccccc2Cl)c(O)c1C=Nc1cccc(F)c1 | 8.7%
Cc1ccc(N2C(=O)/C(=C/c3ccc(O)c(O)c3)SC2=S)cc1C | 7%
CCn1c2ccccc2c2cc(C=Nc3ccccc3C(=O)Nc3ccccc3)ccc21 | -5.9%
Cc1cc(NC(=O)CSc2nc(-c3ccccc3)cc(-c3ccccc3)n2)no1 | 11.1%
CCCn1c(=O)c(C(=O)Nc2ccc(F)cc2)c(O)c2ccccc21 | 9.1%
COC(=O)c1ccc(NC(=O)COc2ccc(C)cc2Br)cc1 | -10.6%
O=C1Nc2ccccc2/C1=c1/sc2n(c1=O)CCN=2 | -2.1%
CCOc1ccc(-c2nnc(NC(=O)CSCc3ccccc3)s2)cc1 | 21.1%
Cc1ccnc(NC(=O)c2cc(I)ccc2Cl)c1 | -4%
O=C1NC(=S)NC(=O)C1=Cc1ccccc1OCc1ccccc1Cl | 8.8%
COc1ccccc1N1CCN(/N=C\c2cccn2C)CC1 | -4.6%
CCOc1cc(/C=C2/SC(=S)NC2=O)ccc1OC | 119%
O=C(CCCC(=O)OCC(F)(F)C(F)F)Nc1ccc(Br)cc1 | -3.1%
Cc1cccc(NC(=O)/C(C#N)=C\c2ccc(OCC(=O)O)cc2)c1 | -1.7%
Cc1cc(Cl)ccc1NC(=O)C(=O)NC(C)C | 31.9%
Cc1cc(OCC(=O)Nc2ccc3c(c2)OCCO3)cc(C)c1Cl | 1%
O=C(Nc1ccc(Cl)cn1)c1cccc(Cl)c1Cl | 7.9%
Cc1ccc(N(C)S(=O)(=O)c2ccc(Cl)cc2)cc1 | 0.6%
COc1ccc(/C=N/Nc2ncc(Br)cn2)cc1 | -11.3%

Compound | displacement
O=C(O)c1ccc(C(=O)c2ccccc2)o1 | -18.2%
CCCCNc1c2c(nc3ccccc13)CC(C)(C)CC2=O | 1.6%
COCC(COCCCNC(=O)Nc1ccc(Br)cc1)OC (stereo unspecified) | -9.9%
CCN1C(=O)/C(=C\c2ccc(-c3ccc(C(=O)O)cc3)o2)SC1=S | -49.9%
Cc1cccc(NC(=O)CCCN2C(=O)c3cccc4cccc(c34)C2=O)c1 | 4%
CCOc1c(/C=C2\Sc3ccccc3C2=O)cccc1OC | 4.5%
CCCc1c(C)nc2c(Br)cccc2c1SCC(=O)O | 2.1%
Cc1ccc2oc(-c3ccc(NC(=O)c4ccc(-c5ccc(Cl)cc5)o4)cc3O)nc2c1 | -3.5%
CCSC1=C(C#N)C(c2cccs2)C(C(=O)Nc2ccccc2OC)=C(C)N1 (stereo unspecified) | 2.5%
C=CCc1cccc(/C=N/NC(=O)c2cc(C3CC3)[nH]n2)c1O | -14.1%
CCC(NC(=O)c1ccccc1NC(=O)c1ccc(OC)cc1)C(=O)O (stereo unspecified) | -7.4%
O=C(O)c1ccc(-c2ccccc2OC(F)(F)F)o1 | -1.6%
COc1cc(C=C2C(=O)NC(=O)NC2=O)ccc1OCCC(C)C | 12.4%
C(=N\Nc1nc(-c2ccccc2)cs1)/c1cccnc1 | -19.5%
CC1CN(S(=O)(=O)c2ccc(C(=O)Nc3nc(-c4ccc([N+](=O)[O-])cc4)cs3)cc2)CC(C)O1 (stereo unspecified) | 13.7%
CCOc1ccc(/C=C(\NC(C)=O)C(=O)O)cc1 | -6.3%
COc1ccc2c(c1OC)C(=O)OC2Nc1cc(C(=O)O)cc(C(=O)O)c1 (stereo unspecified) | -0.8%
CCCc1ccc2c(N)c(C(=O)c3ccc(Cl)cc3)sc2n1 | 0.5%
CC(=O)N1CCN(C2=NC(=O)/C(=C/c3ccccc3)S2)CC1 | 5.3%
CNC(=O)/C(=C/c1cccc([N+](=O)[O-])c1)NC(=O)c1ccc(OC)cc1 | 10.8%
O=C(/C=C/c1ccco1)N1CCN(c2ccc(F)cc2)CC1 | 6.8%
Clc1ccccc1-c1ccc(/C=N/Nc2nc(N3CCOCC3)nc(N3CCOCC3)n2)o1 | 1.3%
O=C(NC1C2CC3CC(C2)CC1C3)c1ccccc1Br (stereo unspecified) | 5.1%
